The values that follow come from publication PMC4585734.

Chains of the proteins cited; added tags and fusions are not shown.
UniProt P35637: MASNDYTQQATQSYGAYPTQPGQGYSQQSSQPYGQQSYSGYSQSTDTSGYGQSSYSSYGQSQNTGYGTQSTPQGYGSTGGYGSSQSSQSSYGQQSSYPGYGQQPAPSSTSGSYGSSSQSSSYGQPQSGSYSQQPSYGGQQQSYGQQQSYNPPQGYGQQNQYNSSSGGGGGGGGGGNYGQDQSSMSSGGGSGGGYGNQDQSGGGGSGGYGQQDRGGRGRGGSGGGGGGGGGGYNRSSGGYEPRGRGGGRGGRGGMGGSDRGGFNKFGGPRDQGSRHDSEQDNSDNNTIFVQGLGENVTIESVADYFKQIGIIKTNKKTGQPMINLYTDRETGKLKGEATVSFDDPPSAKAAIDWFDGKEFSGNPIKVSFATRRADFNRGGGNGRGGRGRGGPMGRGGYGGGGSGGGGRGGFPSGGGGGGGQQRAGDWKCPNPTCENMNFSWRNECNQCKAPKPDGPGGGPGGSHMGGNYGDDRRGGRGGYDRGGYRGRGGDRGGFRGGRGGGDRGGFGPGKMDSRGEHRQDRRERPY
UniProt Q13148: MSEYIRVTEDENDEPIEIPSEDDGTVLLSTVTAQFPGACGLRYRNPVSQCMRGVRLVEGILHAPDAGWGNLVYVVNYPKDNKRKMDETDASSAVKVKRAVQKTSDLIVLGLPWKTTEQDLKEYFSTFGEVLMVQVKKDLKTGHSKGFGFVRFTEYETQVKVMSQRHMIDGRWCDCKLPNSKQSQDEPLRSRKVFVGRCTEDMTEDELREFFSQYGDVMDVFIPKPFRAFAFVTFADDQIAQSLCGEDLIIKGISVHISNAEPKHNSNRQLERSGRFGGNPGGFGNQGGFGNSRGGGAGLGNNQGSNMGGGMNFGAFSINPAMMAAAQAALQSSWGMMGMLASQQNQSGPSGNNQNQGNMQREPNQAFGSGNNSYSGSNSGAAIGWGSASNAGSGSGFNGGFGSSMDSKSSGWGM

Assay [1] has as its target FLAG-FUS (UniProt P35637). Kind of assay: co-IP; live HEK293 cells treated with 0.1% formaldehyde before lysis (NP40 lysis buffer); FLAG-IP, 4 °C, 2 hr; cross-links reversed by heating; in one experiment in-cell RNase A treatment before cross-linking.
For assay [2], the target named is FLAG-TDP-43 (UniProt Q13148). The assay is described as above.

These are yes or no findings as the source states them, for the method shown. Binding seen in cells or lysates may run through a third protein. Some binding calls cover weakened binding; strength is not graded here.

As to “endogenous TDP-43 (HEK293) (from UniProt Q13148 1-414)”, the binding entry in assay [1] was “binds”. In the case of “endogenous FUS (HEK293) (from UniProt P35637 1-526)”, in assay [2], the binding result is listed as “binds”.
